# Laboratory results taken from the supplement of paper PMC3334620.
# In all, about 33,000 sequences were measured (“E-score (-0.5 to 0.5)”: median about -0.04, highest 2% from about 0.36 on). The list shows a part of the results.
# Molecular target: T1, Hmlalpha2 (UniProt P0CY09)
# T1 sequence: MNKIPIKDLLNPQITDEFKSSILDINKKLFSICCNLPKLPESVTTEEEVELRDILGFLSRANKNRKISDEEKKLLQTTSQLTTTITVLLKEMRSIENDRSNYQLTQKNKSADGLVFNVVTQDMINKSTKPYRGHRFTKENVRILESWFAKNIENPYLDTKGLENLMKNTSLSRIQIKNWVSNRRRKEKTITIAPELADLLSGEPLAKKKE
# Assay: PBM E-score (8-mer binding enrichment) (E-score (-0.5 to 0.5)); higher = stronger / more preferred TF binding; most listed sequences are background and not binding sites
# Details: protein concentration: 200 nM; construct: GST-full length
# Procedure, shortened: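 Yeast transcription factors carrying a GST tag, as full-length proteins or DNA-binding domains, were produced by PURExpress in vitro transcription/translation. About 100-200 nM protein was applied to universal all-10-mer Agilent arrays, double-stranded by primer extension on fresh or once-stripped slides. Bound protein was detected with fluorescent anti-GST, and scans were normalised with masliner. The Universal PBM Analysis Suite gave each ungapped eight-base word, pooled with its reverse complement, an E-score, a modified Wilcoxon-Mann-Whitney statistic.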
row,Sequence,PBM E-score
1,ATGCAAAA,0.263
2,GAGCCACC,-0.251
3,CATATAAA,0.101
4,TCTGAAAA,-0.0538
5,CGGATCTC,-0.176
6,CATCACCG,-0.081
7,CTCTCGGA,-0.116
8,CCTCGAAC,-0.227
9,GCACTTCA,0.0694
10,GTAAGCCA,-0.109
11,AAGCGGAA,0.00048
12,CATCATGC,0.0775
13,GACGCAAC,-0.0442
14,AAGTCCAT,-0.0919
15,ACAAGGTC,0.294
16,ATCCATCC,-0.175
17,ATTTCTTG,0.0963
18,CAACCCAC,-0.0634
19,AACCCAAT,-0.0481
20,CCCTGTAC,-0.0311
21,CCTCGTGA,-0.0308
22,AGCTAGTG,-0.133
23,GTTAAGAA,0.251
24,ATTCACGG,0.0201
25,AATGGACA,0.173

row,Sequence,PBM E-score
1,GCGGAGAA,-0.155
2,TGTTATAA,0.399
3,CGCAAGTA,0.239
4,CCGCTCGA,-0.208
5,AACCGAAC,-0.188
6,CCTGTCTA,-0.156
7,CGGTGAGC,-0.281
8,ATAGTGTC,-0.0275
9,CAACTCCC,-0.165
10,AAGTTCAC,0.0925
11,CGCTTCGC,-0.13
12,CCTGGCGC,-0.234
13,AGTTCACG,0.0891
14,CCGACAAA,-0.00265
15,CCGAGAAG,-0.244
16,CGGCTAGA,-0.196
17,ACCGGACA,-0.168
18,ACGTGGAC,0.0226
19,AGGAGTTG,0.121
20,CAAAGCCC,-0.218
21,AACCTTCA,0.143
22,AAGCATAT,0.0773
23,AACAAGGT,0.289
24,ATAAATTC,0.129
25,CCGCACTC,-0.259

row,Sequence,PBM E-score
1,AAGTCTAC,-0.177
2,CATGATCG,0.0573
3,CCACACCC,-0.108
4,GCCCCAGA,-0.328
5,CTGGTCAC,-0.055
6,CGCATATC,0.152
7,CAGGCTAC,-0.0724
8,TACTCCCA,0.126
9,CATAACTC,0.0153
10,CAGGCAAC,-0.114
11,AGCCTACC,-0.364
12,GCAATAAA,0.112
13,CGTGTCGA,0.363
14,AATATACG,0.0601
15,CGTACCGC,-0.0372
16,CAATTTGG,-0.0369
17,AACCGACA,0.104
18,ACACGGGA,0.371
19,GCTTGTCA,0.207
20,CTCCCACA,-0.216
21,CGGAATCA,-0.132
22,CACGTATG,0.229
23,GGCCTTCA,-0.219
24,AAATGGAG,0.0624
25,ACCACCCT,-0.275

row,Sequence,PBM E-score
1,CTATGGGC,-0.261
2,ATCGGCAC,-0.0287
3,CCCCGCGC,-0.154
4,GCCCGGGA,-0.166
5,AACACTTC,0.138
6,CCAAGTTC,-0.288
7,GTGTTCCA,0.0149
8,GCCGCTCA,-0.146
9,GTAAACTA,0.342
10,GCACCAGC,-0.266
11,CGGCCCTA,-0.26
12,CAACGAAA,0.129
13,ACGGGAGG,-0.239
14,GTTAATCA,0.342
15,TCTTACAA,0.229
16,ATTAGGAC,-0.174
17,AGTTGCGG,0.0364
18,AGCCGTGA,-0.0646
19,ACGCCCTA,-0.211
20,ACAGTTAA,0.112
21,GCACCAAA,-0.0557
22,ATCCAGAC,-0.24
23,AGAGGTGA,-0.0117
24,CTTAGTAC,0.0704
25,ATGGAACG,-0.132

row,Sequence,PBM E-score
1,AGTCAACG,0.0904
2,AGTTAATC,0.0967
3,GAAAACAC,0.345
4,ATCTGACG,-0.172
5,CGTATAAG,0.0227
6,ACGACAGC,0.124
7,CACCCTAG,-0.0696
8,CGATTAAG,0.169
9,AATAGATT,0.0509
10,ATAATGTG,0.213
11,ATCGCATG,0.253
12,AATGTGGC,-0.106
13,AAGATACT,-0.0425
14,ACCCTCAG,-0.264
15,GCGAGCGA,-0.242
16,ACCACGGG,-0.213
17,AATTTTAC,0.347
18,GTGTTATA,0.444
19,CCAAAAAG,0.0169
20,GTTGGGTA,-0.0225
21,CCCAAGGC,-0.19
22,GGAGGCTA,-0.325
23,ATAATCGC,0.00512
24,ACATTAAG,0.288
25,CCCGCCGA,-0.373

row,Sequence,PBM E-score
1,ACCGGTTA,-0.00528
2,CATAACCC,0.018
3,GAATTGTA,0.184
4,CTTGCAAA,0.0667
5,AGAAACAA,0.225
6,CAGATGCA,-0.0821
7,AACCACGA,-0.0978
8,GCTTCGGA,-0.092
9,CAAGTTCA,0.107
10,GATTATGA,0.0529
11,CTGCAGAA,-0.0616
12,CGCGGCTC,-0.083
13,CCGTTCGA,-0.209
14,CCGTGGCG,-0.125
15,CATGGCGG,0.0118
16,ATACAGAA,0.199
17,CCTTAAAG,-0.181
18,AGCTGGTG,-0.0156
19,CATTTAGG,-0.262
20,CCAAATAC,0.0549
21,ACAACACT,0.248
22,ACGCCGTA,0.0926
23,GGATGTTA,0.299
24,CTTGCAGA,-0.179
25,CTCGGAAA,-0.0783

row,Sequence,PBM E-score
1,GTCGCGGA,-0.252
2,CAAGCATA,0.00757
3,AGGGGTAT,-0.308
4,CTATAATA,-0.00916
5,GCATAGGC,-0.119
6,CACATCCA,-0.0316
7,AACATAGC,0.302
8,CGATAGCG,-0.173
9,ACTAAATA,0.0908
10,CCAGCGGA,-0.195
11,ACGCATGC,0.247
12,CCCTCTTA,-0.176
13,AAGGCTTG,-0.117
14,CAACGTAC,0.191
15,CTCTCACC,-0.106
16,GTTATCTA,-0.0962
17,CGACATCG,0.0366
18,ACAGCCCT,-0.0612
19,AACACCGT,0.0335
20,GACCAGCA,-0.198
21,TCCTTGAA,-0.0733
22,AGGGTTCG,-0.231
